# Data taken from PMC4336329 (PLoS ONE, 2015).
# In all, about 310,000 compounds went through this assay and about 14,000 (4.5%) showed an effect of 50% or more. Effects have a minus sign here. The list shows a part of the results.
# Target: human ether-à-go-go-related gene (hERG) potassium channel (human, UniProt Q12809)
# Assay: primary screen, population patch clamp on CHO cells stably expressing hERG
# 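Further: peak tail current of the secondary pulse compared with the same well before compound.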
# human ether-à-go-go-related gene (hERG) potassium channel, sequence (Q12809 whole entry, looked up): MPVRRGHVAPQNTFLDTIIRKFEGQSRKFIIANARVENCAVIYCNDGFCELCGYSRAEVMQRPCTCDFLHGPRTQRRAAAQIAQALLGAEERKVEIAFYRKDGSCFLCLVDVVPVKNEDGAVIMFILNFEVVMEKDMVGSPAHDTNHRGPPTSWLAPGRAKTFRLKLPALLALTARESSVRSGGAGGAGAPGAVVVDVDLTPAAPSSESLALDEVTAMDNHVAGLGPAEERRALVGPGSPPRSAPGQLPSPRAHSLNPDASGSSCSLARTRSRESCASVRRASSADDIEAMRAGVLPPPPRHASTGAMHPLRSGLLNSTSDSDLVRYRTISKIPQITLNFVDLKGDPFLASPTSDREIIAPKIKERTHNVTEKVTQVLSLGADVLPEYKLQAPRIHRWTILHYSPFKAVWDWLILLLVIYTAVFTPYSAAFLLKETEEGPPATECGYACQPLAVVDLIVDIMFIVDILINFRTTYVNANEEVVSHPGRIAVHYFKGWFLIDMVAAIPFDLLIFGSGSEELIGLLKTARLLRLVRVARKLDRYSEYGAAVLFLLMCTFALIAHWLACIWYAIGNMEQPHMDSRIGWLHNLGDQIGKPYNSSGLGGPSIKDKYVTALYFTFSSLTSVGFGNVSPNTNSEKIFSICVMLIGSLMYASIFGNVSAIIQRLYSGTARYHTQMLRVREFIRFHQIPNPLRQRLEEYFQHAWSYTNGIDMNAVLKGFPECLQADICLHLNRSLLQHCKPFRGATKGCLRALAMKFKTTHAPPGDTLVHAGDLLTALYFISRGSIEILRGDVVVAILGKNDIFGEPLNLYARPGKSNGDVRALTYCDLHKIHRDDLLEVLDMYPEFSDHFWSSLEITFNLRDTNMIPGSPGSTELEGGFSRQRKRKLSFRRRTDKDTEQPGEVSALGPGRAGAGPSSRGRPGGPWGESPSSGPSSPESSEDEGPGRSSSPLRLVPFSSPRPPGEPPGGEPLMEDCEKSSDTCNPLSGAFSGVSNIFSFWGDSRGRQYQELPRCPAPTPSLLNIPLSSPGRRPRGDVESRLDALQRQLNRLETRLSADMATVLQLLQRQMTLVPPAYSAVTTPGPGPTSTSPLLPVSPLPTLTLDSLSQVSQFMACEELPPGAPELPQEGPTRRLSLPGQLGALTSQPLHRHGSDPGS
row,Structure (SMILES),"hERG current change (%, negative = inhibition) at 10uM [%]"
1,NS(=O)(=O)c1cccc(NC(=O)CSc2nnc(C3CC3)n2C2CC2)c1,8.95
2,O=C(CCNC(=O)c1ccccc1)N=Nc1c(O)[nH]c2ccccc12,10.7
3,CN(C)CC/C=C1/c2ccccc2Sc2c(O)cc(Cl)cc21,-47.5
4,O=C1CC2(CCCCCC2)Oc2ccc(Cl)cc21,9.01
5,Cc1ccc(SCC(=O)NCc2ccccc2C)cc1,11.8
6,CCN1C(=O)NC(c2cccnc2)C(C(=O)OC)=C1C (stereo not drawn),-11.3
7,Cc1noc(C)c1CS(=O)(=O)c1ccc([N+](=O)[O-])cc1,-19.2
8,Cc1ccccc1NC(NC(=O)OCCn1c([N+](=O)[O-])cnc1C)C(Cl)(Cl)Cl (stereo not drawn),2.42
9,C[C@H]1CNC(=O)C(=O)N1C[C@H](Cc1ccc(O)cc1)NC(=O)CC12CC3CC(CC(C3)C1)C2,18.8
10,CCOC(=O)N/N=C/C(Cl)=C/c1ccccc1,0.407
11,CCOC(=O)Cn1cnc2sc3c(c2c1=O)CCC3,1.75
12,COc1ccc(S(=O)(=O)Nc2cc3c4c(c2)CCN4C(=O)CC3)cc1,5.85
13,O=C(CCOc1ccccc1)Nc1ccnn1C1CCN(Cc2ccc(F)cc2)CC1,-59.1
14,CCCCN1CCCC1CNC(=O)c1cc(C#N)c2ccccc2c1OC (stereo not drawn),-64.3
15,S=C(NCc1ccccc1)N1CCN(c2cccc(Cl)c2)CC1,9.86
16,CCCCN1C(=O)C2C3C=CC(C2C1=O)C1C2C(=O)N(CCCC)C(=O)C2C31 (stereo not drawn),-33.2
17,CCOC(=O)c1c(C)n(-c2ccccc2)c2ccc(O)c(CN(C)C)c12.Cl,-30.7
18,O=C(O)C1CCC(=O)N(C2CC2)C1c1ccccc1 (stereo not drawn),12
19,COc1ccc(NC(=O)CSc2nnc(-c3cccs3)n2-c2ccccc2)cc1,-18
20,O=C1CC(c2ccccc2)c2c(O)cc(O)cc2O1 (stereo not drawn),-3.12
21,CCn1nc(C)cc1C(=O)Sc1ccc(Cl)cc1Cl,16.2
22,CC(C)NC(=O)NC(=O)CSc1ccccc1F,-1.52
23,Cc1ccc(Nc2cc(C(=O)NCCCN3CCOCC3)c3ccccc3n2)c(C)c1,-12.8

row,Structure (SMILES),"hERG current change (%, negative = inhibition) at 10uM [%]"
1,O=C(CCc1nnc2ccc(NCc3ccc(F)cc3)nn12)NC1CCCC1,-0.461
2,CC[n+]1ccc(C)c2cc(S(=O)C(F)(F)F)ccc21.Cc1ccc(S(=O)(=O)[O-])cc1 (stereo not drawn),-16
3,O=C(OCC(=O)c1ccc[nH]1)c1ccc2ccccc2n1,24.2
4,COCCn1c(CN2CCN(c3ccc(OC)cc3)CC2)nc2c1c(=O)n(C)c(=O)n2C,-9.23
5,Br.Cn1c(=N)n(CC(=O)c2ccc(Cl)c(Cl)c2)c2ccccc21,-64.1
6,O=[N+]([O-])c1ccc(SCCc2cc[nH+]cc2)cc1.[Cl-],-53.7
7,O=C(NCc1ccco1)c1cc(-c2ccc(Cl)cc2)on1,37.3
8,CNC(=O)COC(=O)c1ccc2c(c1)S(=O)(=O)c1ccccc1C2=O,-3.19
9,O=S(=O)(NCc1ccc(F)cc1)c1cccc(S(=O)(=O)N2CCOCC2)c1,-48.5
10,COc1cc(OC)cc(C(=O)N[C@@H](CCSC)c2nc3ccccc3[nH]2)c1,30.7
11,CCOC(=O)C(=CN(CCc1ccccc1)CC(=O)OC)C(=O)OCC,0.467
12,O=C(c1ccc([N+](=O)[O-])s1)N1CCN(c2ccc(C(F)(F)F)cn2)CC1,-67.5
13,C=CCS(=O)(=O)c1nc2ccccc2s1,9.22
14,Nc1nnc(CSCc2ccc(Cl)cc2)s1,-6.05
15,c1cc(CCN2CCCC2)ccn1,-19.6
16,Cc1ccc(C(=O)Nc2nc(C)c(C)s2)o1,-12.3
17,Cc1cc(C)cc(OCC(=O)NCC2CCCO2)c1 (stereo not drawn),-11.8
18,CCN(CC)CCOC(=O)C1c2ccccc2Oc2ccccc21.Cl,-20.4
19,CCCOc1ccccc1C(=O)N(Cc1cccs1)C1CCS(=O)(=O)C1 (stereo not drawn),-12.1
20,CC1=C/C(=C\c2ccc3c(c2)OCO3)C(=O)S1,5.62
21,CSc1ccccc1OCc1cc(C(=O)N(C)C(C)c2nc(C)cs2)no1 (stereo not drawn),-63.6
22,C(=N\Nc1nc2ccccc2[nH]1)/c1ccncc1,-7.82
